Source: patent publication US3932471A, “Azide” (priority 1973, dated 1976)
Entries after “also recorded” stand apart in the source; their conditions may differ. For some of these results: The name of at least one read-out is uncertain. For some of these results: At least one structure is not confirmed: it was looked up by name or label, or the drawing left a doubt.

How the values were obtained:
[1] = system: red spider mite (Tetranychus sp.); test: Red spider mite contact spray test (M); type: in vivo; conditions: 50% mortality, three days
[2] = system: bean aphid (Aphis fabae); test: Bean aphid contact spray test (A); type: in vivo; conditions: 50% mortality, three days
[3] = system: bean aphid (Aphis fabae); test: Bean aphid systemic soil drench test (AS); type: in vivo; conditions: 50% mortality, three days
[4] = system: pests; test: Pesticidal activity (general statements); type: in vivo; conditions: for activity relative to the compound of Formula (III), retested: resynthesized and tested
[5] = system: pests; conditions: J. Agr. Food Chem., 14, 356 (1966); cited from earlier work

Row | Compound | M (mite contact) rating [1] | A (aphid contact) rating [2] | AS (aphid systemic) rating [3] | pesticidal activity compared with Compound 7472 (Formula I) or Compound 7577 (Formula II) ([4]; comparison with 7472 or 7577) | pesticidal activity compared with aldicarb (Formula III) / commercial products ([4]; comparison with aldicarb / commercial products) | pesticidal activity (in words) ([4]; insects and mites) | activity relative to the compound of Formula (III), retested [4] | activity compared to the aldoxime compound of Formula (III), as reported [5]
1 | CNC(=O)ON=C(CSC)C(C)(C)C [Compound 7268, 3,3-dimethyl-2-methylcarbamyloximino-1-methylthiobutane] | 7 (50% mortality at concentration in parts per million of 8-4) | 9 (50% mortality at concentration in parts per million of 2) | 7 (50% mortality at concentration in pounds per acre of 1/4-1/8) | vastly superior | comparable or superior | outstanding activity against all of the pests except the Southern army worm and the housefly; also recorded: high insecticidal and miticidal activity |  | 
2 | CNC(=O)ON=C(C)C(C)(C)C [Compound 7472, 2,2-dimethyl-3-methylcarbamyloximinobutane, reference compound] | 0 (50% mortality at concentration in parts per million of >500) | 1 (50% mortality at concentration in parts per million of 500-250) | 1 (50% mortality at concentration in pounds per acre of 16-8) |  |  |  | lack of activity | essentially inactive
3 | CNC(=O)ON=C(C)C(C)(C)SC [Compound 7577, 3-methyl-2-methylcarbamyloximino-3-methylthiobutane, reference compound] | 0 (50% mortality at concentration in parts per million of >500) | 0 (50% mortality at concentration in parts per million of >500) | 0 (50% mortality at concentration in pounds per acre of >16) |  |  |  | lack of activity | essentially inactive
4 | CNC(=O)O/N=C/C(C)(C)SC [aldicarb, reference compound] | 4 (50% mortality at concentration in parts per million of 64-32) | 9 (50% mortality at concentration in parts per million of 2) | 9 (50% mortality at concentration in pounds per acre of 1/16) |  |  |  |  | 
